Measured values reported in the RNAGym collection of RNA variant scans (doi:10.7554/elife.90254).
Read counts are not given, so values of variants with three or more changes are uncertain.

B1: LINE1-full (parent)
chain: UACGUAGGUGGUUUUCCCCUGAUAGUGCUAAGGGGGCCUGGAAGUUUGGACUGGGCAGAGCUCAACACAGCGUGGCAAAGUGGCUGUGGCUAGACUGCCUCUCUGGAUUCCUCGUCACUCAGCAGGGCAUCUCUGAGAGAAAUGCC

Variants of: B1
Assay: self-cleavage, relative activity (ratio to wild type); higher = more cleavage; in vitro, sequencing; the parent is a self-cleaving ribozyme

Row | Variant | self-cleavage
1 | UACGUAGGUGGUUUUCCCCCGAUAGUGCUAAGGGGGCCUGGAAGUUUGGACUGGGCAGAGCUCAACACAGCGUGGCAUAGUGGCUGCGGCUAGACUGCCUCUCUGGAUUCCUCGUCACUCAGCAGGGCAUCUCUGAGAGAAAUGCC | 0.04
2 | CACGUAGGUGGUUUUCCCCUGAUAGUGCUAAGGGGGCCUGGGAGCUUGGACUGGGCAGAGCUCAACACAGCGUGGCAAAGUGGCUGUGGCUAGACUGCCUCUCUGGAUUCCUCGUCACUCAGCAGGGCAUCUCUGAGAGAAAAGCC | 0.44
3 | UACGUAGGUGGUUUUCCACUGAUAGUGCUAAGGGGGCCUGGAAGUUUGGACUGGGCAGAACUCAACACAGCGUGGCAAAGUGGCUGUGGCUAGACUGCCUCUCUGGAUUCCUCGUCACUCAGCAGGGCAUCUCAGAGAGAAAUGCC | 0.05
4 | UACGUAGGCGGUUUCCCCCUGAUAGUGCUAAGGGGGCCUGGGAGUUUGGACUGGGCAGAGCUCAACACAGCGUGGCAAAGUGGCUGUGGCUAGACUGCCUCUCUGGAUUCCACGUCACUCAGCAGGGCAUCUCUGAGAGAAAUGCC | 1.31
5 | UACGUAGGGGGUUUUCCCCUGAUAGUGCUAAGGGGGCCUGGAAGUUUGGACUGGGCAGAGCUCAACGCAGCGUGGCAAAGUGGCUGUGGCUAGACUGCCCCUCUGGAUUCCUCGUCACUCAGCAGGGCAUCUCUGAGAGAAAUGCC | 1.02
6 | UACGUAGGUGGUUUUCCCCUGAUAGUGCUUAGGGGGCCUGGAAGUUUGGACUGGGCAGAGCUCAACACAGCGUGGCAUAGUGGCUGUGGCUAGACUGCCACUCUGGAUUCCUCGUCACUCAGCAGGGCAUCUCUGAGAGAAAUGCC | 1.31
7 | UACGUAGGUGGUUUUCCCCUGAUAGUGCUAAGGGGGCCUGGAAGUUUGGACUGGGCAGGGCUCAACACAGCGUGGCAAAGUGGCUGUGGCUAGACUGCCUCUCUGGAUUCCUCGACACUCAGCAGGGCAUCUCUGAGAGAAGUGCC | 0.1
8 | UACGUAGGUGGUUUUCCCCUGAUAGUGCUAAGGGGGCCUGGAAGUUUGGUCUGGGCAGAGCUCAACACAGCGUGGCGAAGUGGCUGUGGCUAGGCAGCCUCUCUGGAUUCCUCGUCACACAGCAGGGCAUCUCUGAGAGAAAUGCC | 0.06
9 | UACGUAGGCGGUUUUCCCCUGAUAGUGCUAAGGGGGCCUGGAAGUUUGGACUGGGCAGAGCUCAACACAGCGUGGCAAAGUGGCUGUGGCCAGACCGCCUCUCUGGAUUCCUCGUCACUCAGCAGGGCAUCUCUGAGAGAAACGCC | 0
10 | UACGUAGGUGGUUUUCCCCUGGUAGUGCUAAGGGGGCCUGGAAGUUUGGACUGGGCAGAGCUCAACACAGCGCGGCAAUGUGGCUGUGGCUAGACUGCCUCUCUGGAUUCCUCGUCACUCAGCAGGGCAUCUCUGAGAGAAAUGCC | 1.89
11 | UACGUAGGUGGUUCUCCCCUGAUAGUGCUAAGGGGGCCUGGAAGUUUGGACUGGGCAGAGCUCAACACAGCGUGGCAAGGUGGCUGUGGCUAGACUGCCUCUCUGGACUCCUCGUCACUCAGCAGGGCAUCUCUGAGAGAAAUGCC | 0.95
12 | UACGAAGGUGGUUUUCCCCUGAUAGUGCUAGGGGGGCCUGGAAGUUUGGACUGGGCAGAGCACAACACAGCGUGGCAAAGUGGCUGUGGCUAGACUGCCUCUCUGGAUUCCUCGUCACUCGGCAGGGCAUCUCUGAGAGAAAUGCC | 0.18
13 | UACGUAGGUGGUUUUCCCCUGAUAGUGCUAAGGGGGCCUAGAAGUUUGGACUGGGCAGAGCCCAACACAGCGUGGCAAAGUGGCUGUGGCUAGACUGCCUCUCUGGGUUCCUCGUCACUCAGCAGGGCAUCUCUGAGAGUAAUGCC | 0.02
14 | UACGUAGGUGGUUUUCCCCUGAUAGUGCUAAGGGUGCCUGGAAGUUUGGACUGGGCAGAGCUCAACACAGCGUGGCAAAGUGGCUGUGGCUAGACUGCCUCACUGUAUUCCUCGUCACCCAGCAGGGCAUCUCUGAGAGAAAUGCC | 2.36
15 | UACGCAGGUGGUUUUCCCCUGAUAGUGCAAAGGGGGCCUGGAAGUUUGGACUGGGCAGAGCUCAACACAGCGUGGCAGAGUGGCUGUGGCUAGACUGCCUCUCCGGAUUCCUCGUCACUCAGCAGGGCAUCUCUGAGAGAAAUGCC | 1.38
16 | CACGUAGGUGGUUUUCCCCUGAUAGUGCUAAGGGGGCCUGGAAGUCUGGACUGGGCAGAGCUCAACACAGCGUGGCAAAGUGGCUGUGGCUAGACUGCCUCUCUGGAUUCCUCGUCACUCAGUAGGGCAUCUCUGAGAGAAAUGCC | 0.9
17 | UACGUAGGUGGUUUUCCCCUGAUAGAGCUAAGGGGGCCUGGAAGUUUGGACUGGCCAGAGCUCAACACAGCGUGGCAAAGUGGCUGUGGCUAGACUGCCUCUCUGGAUUCCUCGUCACCCAGCAGGGCAUCUCUGAGAGAAAUGCC | 0.31
18 | UACGUAGGUGGUUUUCCCCUGAUAGUGCUAAGGGGGCCUGGAGGUUUGGACUGGGCAGAGCACAACACAGCGUGGCAAAGUGGCUGUGGCUAGACUGCCUCCCUGGAUUCCUCGUCACUCAGCAGGGCAUCUCUGAGAGAAAUGCC | 0.06
19 | UACGUAGGUGGUUUUCCCCUGGUAGUGCUAAGGGGGCCUGGAAGUUUGGACUGGGCAGAGCUCAAUACAGCGUGGCAAAGUGGCAGUGGCUAGACUGCCUCUCUGGAUUCCUCGUCACUCAGCAGGGCAUCUCUGAGAGGAAUGCC | 0.04
20 | UACGUAGGUGGUUUUCCCCUGAUAGUGCUAAGGGGGCCUGGAAGUUUAGACCGGGCAGAGCUCGACACAGCGUGGCAAAGUGGCUGUGGCUAGACUGCCUCUCUGGAUUCCUCGUCACUCAGCAGGGCAUCUCUGAGAGAAAUGCC | 0.2

Row | Variant | self-cleavage
21 | UACGUGGGUGGUUUCCCCCUGAUAGUGCUAAGGGGGCCUGGAAGUUUGGACUGGGCAGAGCUCAACACAGCGUGGCAAAGUGGCUGUGGCUAGACUGCCUCUCAGGAUUCCUCGUCACUCAGCAGGGCAUCUCUGAGAGAAAUGCC | 0.75
22 | UACGUAGGUGGUUUUCCCCAGAUAGUGCUAAGGGGGCCUGGAAGUUUGGACUGGGCAGAGCCCAGCACAGCGUGGCAAAGUGGCUGUGGCUAGACUGCCUCUCUGGGUUCCUCGUCACUCAGCAGGGCAUCUCUGAGAGAAAUGCC | 0
23 | UACGUAGGUGGUUUCCCCCUGAUAGUGCUAAGGGGACCUGGAAGUUUGGACUGUGCAGAGCUCAACACAGCGUGGCAAAGUGGCUGUGGCUAGACUGCCUCUCUGGAAUCCUCGUCACUCAGCAGGGCAUCUCUGAGAGAAAUGCC | 0.5
24 | UACGUAGGUGGUUUUCCCCUGAUAGUGCUAAGGGGGCCUGGAAGUUUGGACCGGGCAGAGCUCAACACAGCGUGGCAAAGUGGCUGUGGCUAGACUGCCUCUCUGGGUUCCUCGUCACUCAGCAGGGCAUCUCUGAGAGAAGUGCC | 2.51
25 | UACGUAGGCGGUCUUCCCCUGAUAGUGCUAGGGGGGCCUGGAAGUUUGGACUGGGCAGAGCUCAACACAGCGUGGCAAAGUGGCUGUGGCUAGACUGCCUCCCUGGAUUCCUCGUCACUCAGCAGGGCAUCUCUGAGAGAAAUGCC | 1.78
26 | UACGUAGGUGGUUUUCCCCUGUUAGUGCUAGGGGGGCCUGGAAGUUUGGACUGGGCAGAGCUCAACACAGCGUGGCAAAGUGGCUGUGGCUAGACUGCCUCUCUGGAUUCCUCGUCACUCUGCAGGGCAUCUCUGAGAGAAAUGCC | 1.5
27 | UACGUAGGUGGUUUUCCCCUGAUAGUGCUAAGGGGGCCUGGAAGUUUGGACUGGGCAGAGCUCAACACAGCGUGGCAAAGUGGCUGUGGCUAGACCGCCUCUCUGGAUUCCUCGUCACACAGCUGGGCAUCUCUGAGAGAAAUGCC | 0.12
28 | UACGUAGGUGGUUUUCCCCUGAUAGUGCUAAGGGGGCCUAGAAGUUUGGACUGGGCAGAGCCCAACACAGCGUGGCAAAGUGGCUGUGGCUAGACUGCCUCUCUGGAUCCCUCGUCACUCAGCAGGGCAUCUCUGAGAGAAAUGCC | 0.09
29 | UACGUAGGUGGUUCUCCCCUGAUAGUGCUAAGGGGGCCUGGAUGUUUGGACUGGGCAGAGCUCAACACAGCGUGGCAAAGUGGCUGUGGCUAGACUGCCUCUCUGGAUUCCUCGUCACCCAGCAGGGCAUCUCUGAGAGAAAUGCC | 0.95
30 | UGCGUAGGUGGUUUUCCCCUGAUAGUGCUAAGGGGGCCUGGAAGUUUGGACUGGGCCGAGCUCAGCACAGCGUGGCAAAGUGGCUGUGGCUAGACUGCCUCUCUGGAUUCCUCGUCACUCAGCAGGGCAACUCUGAGAGAAAUGCC | 0.44
31 | UACGUAGGUGGUCUUCCCCCGAUAGUGCUAAGGGGGCCUGGAAGUUUGGACUGGGCAGAGCUCAACACAGCGUGGCAAAGUGGCUGUGGCUAGACUGCCUCUCUGGAUUCCUCGACACUCAGCAGGGCAUCUCUGGGAGAAAUGCC | 1.7
32 | UACGUAGGUGGUUUUCCCCUGAUAGUGCUAAGGGGGCCUGGAAGUUUGGACUGGGCAGAGCCCAACACAGCGUGGCAAAGAGGCUGCGGCUAGACUGCCUCUCUGGAUUCCUCGUCACUCAGCAGGGCAUCUCUGAGAGAAAUGCC | 0.13
33 | UACGUAGGUGGUUUUCCCCGGAUAGUGCUAAGGGGGCCCGGAAGUUUGGACUGGGCAGAGCUCAACACAGCGUGGCAAAGCGGCUGUGGCUAGACUGCCUCUUUGGAUUCCUCGUCACCCAGCAGGGCAUCUCUGAGAGAAAUGCC | 1.02
34 | AACGUAGGUGGUUUUCCCCUGAUAGUGCUAAGGGGGCCUGGAGGUUUGGACUGGGCAGAGCUCAGCACAGCGUGGCAAAGUGGCUGUGGCUAGACUGCCUCUCUGGAUUCCUCGUCACUCAGCAGGGCAUCUCUGAGAGAAAUGCC | 0
35 | UACGUAGGUGGUUUUCCCCUGAUAGUGCUAAGGGGGCCUGGAAGUUUGGACUGGGCAGAGUUCAACACAGCGUGGCAAAGUGGCUGUGGCUAGACUGCCUCUCUGGAUUCCUCGUCACUCAGCAGGGCAUCUCCGAGAGAAAUACC | 0.04
36 | UACGUAGGUGGUUUACCCCUGAUAGUGCUAAGGGGGCCUGGGAGUUUGGACUGGGCAGAGCUCAACACAGCGUGGCAAAGUGGCUGUGGUUAGACUGCCUCUCUGGAUUCCUCGUCACUCAGCAGGGCAUCUCCGAGAGAAAUGCC | 0.08
37 | UACGUCGGUGGUUUUCCCCAGAUAGUGCUAAGGGGGCCUGGAAGUUAGGACUGGGCAGAGCUCAACACAGCGUGGCAAAGUGGCUGUGGCUAGACUGCCUCUCUGGAUUCCUCGUCACUCAGCAGGGCAUCUCUGAGAGAAAAGCC | 1.81
38 | UACGUAGGUGGUUUUCCCCUGUUAGUGCUAAGGGGGCCUGGAAGUUUGGACUGGGCAGAGCUCAACACAGCGUGGCAAAGUGGCUGUGGCUAGCCUGCCUCUCUGGAUUCCCCGUCACUCAGCAGGGCAUCUCUGAGAGAAAUGCC | 0.15
39 | UACGUAGGUGGUUUUCCCCUGAUAGUGCUAAGGGGGCCUGGAAGUUUGGACUGGGCAGAGCUCAACACAGCGUGGCAAAGUGGCUGAGGCUAGACUGCCUCUCUGGAUUCCUCGUCGCACAGCAGGGCAUCUCUGAGGGAACUGCC | 0
